Test results as given in paper PMC6919601, “Identification of Plasmodium dipeptidyl aminopeptidase allosteric inhibitors by high throughput screening” (PLoS ONE, 2019).
Out of some 110,000 compounds screened, about 230 (0.21%) showed an effect of 50% or more. The list shows a part of the results.

Target: DPAP1 (Plasmodium falciparum, UniProt Q8IIJ9)
Assay: primary screen, percent inhibition; read by cleavage of a fluorogenic dipeptide substrate; higher = more effect of the substance
Parameters: species or system P. falciparum D10 trophozoite lysates; single well
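Further: 30 min substrate incubation versus DMSO and 10 µM JCP410 controls.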

Chain of DPAP1 (Q8IIJ9 whole entry, looked up): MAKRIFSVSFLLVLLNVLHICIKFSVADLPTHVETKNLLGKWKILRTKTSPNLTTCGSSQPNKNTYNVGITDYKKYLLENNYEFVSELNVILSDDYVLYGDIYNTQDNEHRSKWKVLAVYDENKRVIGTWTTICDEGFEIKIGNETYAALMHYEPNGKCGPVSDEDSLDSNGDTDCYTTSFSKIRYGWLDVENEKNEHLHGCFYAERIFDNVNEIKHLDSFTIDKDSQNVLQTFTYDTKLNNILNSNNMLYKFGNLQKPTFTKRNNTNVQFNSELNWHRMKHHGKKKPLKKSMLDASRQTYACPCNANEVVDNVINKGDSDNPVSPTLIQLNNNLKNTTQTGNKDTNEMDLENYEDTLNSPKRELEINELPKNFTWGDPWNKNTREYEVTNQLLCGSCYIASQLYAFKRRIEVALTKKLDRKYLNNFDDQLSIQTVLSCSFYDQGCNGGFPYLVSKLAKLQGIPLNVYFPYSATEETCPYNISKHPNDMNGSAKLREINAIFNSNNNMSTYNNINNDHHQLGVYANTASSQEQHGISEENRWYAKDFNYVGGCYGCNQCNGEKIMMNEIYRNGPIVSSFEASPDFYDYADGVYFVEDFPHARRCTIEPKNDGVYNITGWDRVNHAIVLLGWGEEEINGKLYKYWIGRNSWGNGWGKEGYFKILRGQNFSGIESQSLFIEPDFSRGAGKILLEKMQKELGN

| SMILES | % Inhibition @ 10 uM [%] |
| --- | --- |
| CCc1c(C)c2ccc3c(c2oc1=O)CN(Cc1ccc2c(c1)OCO2)CO3 | 0.442 |
| CSc1nccc2ccccc12 | -3.13 |
| O=C(CSc1ccccn1)c1ccc(Br)cc1 | 1.96 |
| CCCCOc1ccc2c(-c3ccccc3)cc(=O)oc2c1 | -0.339 |
| COc1ccc(Br)cc1CNc1ccc(CNc2nc[nH]n2)cc1 | 3.49 |
| O=C(NC1CCCCCC1)c1cc(-c2ccc(Br)cc2)n[nH]1 | -3.5 |
| Cc1cc(C)cc(NC(=O)c2nn(C)cc2Br)c1 | -1.57 |
| CCN(CCN(C)C)Cc1ccc(SC)cc1 | -0.292 |
| CN1CCC(N(C)Cc2ccc(N(C)C)cc2)CC1 | -8.13 |
| CCOC(=O)c1cccc(NC(=O)C2CCCC2)c1 | 3.04 |
| COc1ccc(C2CC(c3cccs3)=NN2C(=O)CCC(=O)O)cc1 (centres unmarked) | 1.71 |
| Cc1ccccc1Cn1c(C)c(CNC2CCCc3ccccc32)c(C(=O)O)c1C (centres unmarked) | -1.92 |
| Cc1c(CC(=O)NCc2ccc(Cl)cc2)c(=O)oc2cc(O)ccc12 | 2.54 |
| O=C(NCc1cccnc1)c1ccc(C#Cc2ccccc2)cc1 | 1.71 |
| CC(C)(C)N1C(=O)c2ccc(-c3nc4ccccc4s3)cc2C1=O | -0.545 |
| COc1ccc(C2CC3=NC(C)=C(C#N)C(c4cccc(F)c4)C3=C(O)C2)cc1 (centres unmarked) | 4.01 |
| COc1ccc(CCNc2ncnc3onc(C)c23)cc1OC | -4.97 |
| Cc1ccc(OCC(=O)Nc2ccc(C#N)cc2)cc1 | -9.28 |
| CCOC(=O)c1c(C)nc2nonc2c1N | -4.93 |
| Nc1c(C(=O)NCc2ccccc2)noc1C(=O)c1ccccc1 | 5.45 |
| CCOC(=O)C1=C(C)OC(n2cccc2)=C(C#N)C1c1ccc(F)cc1 (centres unmarked) | -5.72 |
| Cc1ccc2oc(=O)c3cc(C(=O)N(C)CCC#N)sc3c2c1 | 1.94 |
| O=C(NC1(C(F)(F)F)C(=O)Nc2c1c(=O)[nH]c(=O)n2-c1ccccc1)c1cccnc1 (centres unmarked) | 5.39 |
| CC(NC(=O)c1cc(O)nc2ccc(S(=O)(=O)N3CCCCCC3)cc12)c1ccccc1 (centres unmarked) | 3.2 |
| Cc1ccc(NC(=O)C2CCN(S(=O)(=O)c3ccc4[nH]c(-c5ccccc5)nc4c3)CC2)nc1 | -1.4 |
| O=C(Cc1ccccc1)n1nc(-c2ccc(Cl)cc2)nc1NCc1ccco1 | -2.91 |

| SMILES | % Inhibition @ 10 uM [%] |
| --- | --- |
| N#CC1=C(N)Oc2c(O)nc(O)nc2C1c1cccc([N+](=O)[O-])c1 (centres unmarked) | -3.98 |
| CCCn1c2ccccc2c2cnn(CC(=O)N3CCC(Cc4ccccc4)CC3)c(=O)c21 | -6.37 |
| CC(=O)n1cc(C2C(=O)CC(C)(C)CC2=O)c2ccccc21 | 5.03 |
| COC(=O)c1cc(S(=O)(=O)Nc2ccc(C)cn2)cn1C | 0.655 |
| CCOC(=O)N1C2Sc3cccnc3C1Sc1ncccc12 (centres unmarked) | 0.367 |
| CC1CCc2c(sc(NC(=O)CCCC(=O)O)c2C(N)=O)C1 (centres unmarked) | -2.54 |
| COC(=O)C1=C(C)NC(=O)CC1c1ccc(F)cc1 (centres unmarked) | 2.22 |
| CC(C(=O)O)N1C(=O)C2C3c4ccccc4C(c4ccccc43)C2C1=O (centres unmarked) | 0.76 |
| COc1cccc(CN2CCSCC2)c1 | 1.63 |
| O=C(CSc1ccccc1)Nc1cccc(O)c1 | -3.43 |
| O=C(NC1CCCCC1)c1scc2c1CCCC2 | 1.82 |
| O=C(Nc1ccc(Cl)cn1)c1cccc(S(=O)(=O)N2CCCCCC2)c1 | 1.26 |
| CNC(=O)/C(=C\c1ccc(OC)cc1)NC(=O)c1ccccc1Br | 4 |
| CCn1c(-c2ccccc2Cl)nc2ccccc21 | -0.551 |
| O=C(NCCO)/C(=C/c1ccccc1)NC(=O)c1cccc(Br)c1 | -0.413 |
| NS(=O)(=O)c1ccc(NC(=O)CCC2CCCC2)cc1 | -2.94 |
| COc1cc(S(=O)(=O)N2CCC(C(N)=O)CC2)c(OC)cc1Cl | -4.53 |
| O=C1CC(C(F)(F)F)=Nc2ccccc2N1 | 0.937 |
| C=CCc1ccccc1N(CC(=O)O)C(=O)c1ccccc1 | -2.39 |
| Cc1cccc(CCNC(=O)c2cc3c(C)nc4ccccc4c3o2)c1 | -5.25 |
| O=C(O)CCCCCn1c(SCc2cc(=O)oc3cc(O)ccc23)nc2ccsc2c1=O | 8.3 |
| O=C(NC(=O)C(F)(F)F)Nc1ccc(S(=O)(=O)Nc2ccccn2)cc1 | -5.51 |
| O=C1Nc2c(cnn2Cc2ccccc2)C(c2ccc(Cl)cc2)N1 (centres unmarked) | -7.02 |
| CCOC(=O)c1c(NC(=O)C(F)(F)F)sc(C)c1C | -0.294 |
| Cc1cc(C)cc(NC(=O)C2CCCN2C(=O)C(C)(C)C)c1 (centres unmarked) | -3.19 |
| CCN(CC)C(=O)c1c(F)cccc1F | 4.33 |

| SMILES | % Inhibition @ 10 uM [%] |
| --- | --- |
| O=S(=O)(NCc1ccc2c(c1)OCO2)c1ccc(-c2ccc(O)nn2)s1 | 4.9 |
| COCCN1C(=O)c2ccc(C(=O)Nc3ccccc3C(=O)O)cc2C1=O | 1.1 |
| COCCCNC(=O)c1ccc(CS(=O)(=O)c2ccc(Br)cc2)o1 | 3.77 |
| Cc1nc2cc(C(=O)N3CCCCC3)ccc2n1-c1ccc(F)cc1F | 2.8 |
| O=C(c1ccc(CS(=O)c2ccc(Cl)cc2)o1)N1CCOCC1 (centres unmarked) | -1.28 |
| COc1ccc(N2C(=O)C3CC=CCC3C2=O)cc1 (centres unmarked) | -6.37 |
| CCCCOc1ccc(-c2ccc(C#N)cc2)cc1 | -1.25 |
| Cc1ccc2c(=O)cc(C(=O)Nc3nc4ccc(F)cc4s3)oc2c1C | -3.24 |
| Cc1ccccc1S(=O)(=O)Cc1ccc(C(=O)N2CCN(C3CCCCC3)CC2)o1 | 0.51 |
| O=C(NCCn1ccc2ccccc21)c1ccccc1Cl | -1.62 |
| CC(C)Cn1cc(NC(=O)N2CCOCC2)c2ccccc2c1=O | -5.94 |
| CCOc1ccc(C2CC(c3ccc(C)c(C)c3)Nc3nnnn32)cc1 (centres unmarked) | -1.48 |
| COc1cccc(Nc2nc(-c3ccc(S(=O)(=O)N4CCCC4)cc3)cs2)c1 | -7.57 |
| Nc1cc(O)nc(SCC(=O)N2CCc3ccccc32)n1 | 2.3 |
| O=C(O)CCCC(=O)Nc1cccc(C(F)(F)F)c1 | 2.38 |
| Cn1ncc([N+](=O)[O-])c1C(=O)NC1CCCCC1 | 3.31 |
| CCN(CC)S(=O)(=O)c1ccc(NC(=O)COc2ccc(Cl)cc2)cc1 | -4.82 |
| Cn1c2ccccc2c2cnn(CC(=O)NCCCN3CCC(N4CCCCC4)CC3)c(=O)c21 | -3.9 |
| NC(=O)C1CCN(c2nc(-c3cccc(Cl)c3)c3c(n2)-c2ccccc2OC3)CC1 | 2.32 |
| O=C(NCCc1ccc(Cl)cc1)c1nc(-c2ccncc2)no1 | -6.34 |
| CCOc1ccccc1NC(=O)c1cc(OC)c(OC)c(OC)c1 | -0.872 |
| COc1ccc(Cn2c(S)nc3ccccc32)cc1 | -5.34 |
| Cc1nn(-c2ccccc2)c(-n2cccc2)c1C(=O)N1CCC(C(=O)N2CCOCC2)CC1 | -1.58 |
| O=C(CN1C(=O)c2ccccc2C1=O)Nc1ccccc1C(=O)N1CCCCC1 | 5.63 |
| COC(=O)c1c2c(nc3ccccc13)CCC2 | 0.205 |
| Cc1cc(Cl)cc(Cl)c1OCC(=O)Nc1ccccn1 | 7.73 |

| SMILES | % Inhibition @ 10 uM [%] |
| --- | --- |
| CC(=O)Nc1c(O)nc(SCC(=O)Nc2nnc(CC(C)C)s2)nc1O | -3.74 |
| O=c1c2nccnc2nc(SCc2cccc(F)c2)n1CCc1ccccc1 | 1.39 |
| COc1ccc2c(c1)nc(CO)n2C | 0.778 |
| O=C(O)COc1ccccc1/C=C1\Sc2ccccc2C1=O | 4.28 |
| CCOC(=O)c1[nH]c2ccccc2c1NC(C)=O | 6.43 |
| Cc1ccc(CNC(=O)C2CCN(S(=O)(=O)c3c[nH]cn3)CC2)cc1 | -0.499 |
| Cc1ccc(C(=O)NCc2ccco2)cc1 | 3 |
| CN(C)c1c2ccccc2nc2c(F)c(F)c(F)c(F)c12 | 2.46 |
| Cc1nnc(NC(=O)CSc2nnc(CNC(=O)c3c(F)cccc3Cl)o2)s1 | -1.58 |
| N#CC1=C(N)N(c2nc[nH]n2)C2=C(C(=O)CC(c3ccccc3)C2)C1c1ccccc1Cl (centres unmarked) | 0.726 |
| Cc1ccsc1CN(C)C1CCN(C)CC1 | -2.03 |
| COc1ccccc1C(=O)Nn1cnnc1 | 2.03 |
| CCc1c(CN2CCN(c3ccccn3)CC2)csc1C | -5.74 |
| COc1ccc(Cc2noc(COc3ccc4ccccc4c3)n2)cc1 | -8.64 |
| CCOC(=O)C1=C(O)/C(=C\c2ccc(Cl)cc2Cl)N=C1C | 7.35 |
| O=C1CC(C(=O)Nc2ccc(C(=O)O)cc2)SC(Nc2ccccc2)=N1 (centres unmarked) | -6.05 |
| C[C@@H](C[C@H](NC(=O)c1ccc(-c2cc(C(=O)O)ccc2Cl)cc1)C(=O)NC1(C#N)CCN(CC(F)(F)F)CC1)c1ccccc1 | -6.56 |
| COc1ccccc1/C=C1/C(=N)N2C(c3ccccc3)=CSC2=NC1=O | -3.75 |
| OC1(c2ccc3ccccc3n2)COc2ccccc2O1 (centres unmarked) | 5.64 |
| CC1CCN(C(=O)CNC(=O)c2cccs2)CC1 | 2.05 |
| C#CCOc1c(Cl)cc(/C=C2/NC(=O)NC2=O)cc1Cl | -1.25 |
| CC1CN(S(=O)(=O)c2ccc(NC(=O)c3ccccc3Cl)cc2)CC(C)O1 (centres unmarked) | -1.78 |
| CCCc1c(O)nc(SCCN(CC)CC)n(C(=O)c2ccccc2)c1=O | -6.6 |
| CCNc1sc(S(C)(=O)=O)nc1S(=O)(=O)c1ccc(Cl)cc1 | -0.522 |
| CNS(=O)(=O)c1cn(CC(=O)N2CCCC(C)C2)cc1S(=O)(=O)NC (centres unmarked) | -0.518 |
| Cc1ccccc1C(=O)N(Cc1ccco1)C1CCS(=O)(=O)C1 (centres unmarked) | 0.569 |
